Reference: PubChem BioAssay AID485290 (National Center for Advancing Translational Sciences (NCATS), 2010)
Among all 350,000 compounds or so, about 990 (0.28%) were called active. This list was built around the results that the source calls inconclusive (neither active nor inactive); the mix of calls is not that of the screen. The call rests on the fitted dose curve; in most records, active means well fitted inhibition curve with a large enough effect; inconclusive means small, poorly fitted or top-dose-only effect; inactive means no such curve, though single readings can be large or run the other way. A potency beside an inconclusive call is a rough fit, not a confirmed value.

Biological target: Tyrosyl-DNA phosphodiesterase 1 (Homo sapiens) (UniProt Q9NUW8)
Assay: qHTS Assay for Inhibitors of Tyrosyl-DNA Phosphodiesterase (TDP1); further: nearly all actives have a fitted effect of over 40% in size
Conditions: recombinant TDP1, AlphaScreen DNA substrate cleavage; series mostly up to 130 µM
Outline: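 Signal: AlphaScreen proximity between streptavidin donor and anti-FITC acceptor beads on intact substrate. Reaction: Tdp1 1 nM, substrate 15 nM final, 5 min RT after 15 min compound preincubation.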
Potency means the concentration at half of the fitted maximal effect; tags describe the fitted curve by direction and shape.

UniProt Q9NUW8, sequence (Q9NUW8 whole entry, looked up): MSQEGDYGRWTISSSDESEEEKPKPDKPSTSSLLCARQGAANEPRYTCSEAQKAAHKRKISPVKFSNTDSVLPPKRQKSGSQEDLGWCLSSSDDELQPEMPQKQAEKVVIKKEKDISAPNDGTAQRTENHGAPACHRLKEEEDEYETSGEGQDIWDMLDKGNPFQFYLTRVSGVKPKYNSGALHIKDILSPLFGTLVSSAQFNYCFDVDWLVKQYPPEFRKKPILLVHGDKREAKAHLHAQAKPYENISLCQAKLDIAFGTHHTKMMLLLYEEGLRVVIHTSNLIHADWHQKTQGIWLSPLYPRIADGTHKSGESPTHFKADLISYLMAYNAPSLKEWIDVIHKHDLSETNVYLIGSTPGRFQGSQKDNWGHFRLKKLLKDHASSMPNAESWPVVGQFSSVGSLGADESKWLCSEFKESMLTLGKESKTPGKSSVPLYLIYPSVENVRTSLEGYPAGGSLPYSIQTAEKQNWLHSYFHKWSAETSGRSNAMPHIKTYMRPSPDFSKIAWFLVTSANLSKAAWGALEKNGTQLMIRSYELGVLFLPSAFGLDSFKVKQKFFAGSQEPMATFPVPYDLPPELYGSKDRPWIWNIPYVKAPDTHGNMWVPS

Row | Compound | Potency
1 | CCc1cccc(C)c1NC(=O)C1CC=CCC1C(=O)O (centres undefined) | inconclusive: 39.8 µM [inhibitor, single point]
2 | C=CCn1c(SCC(=O)N2CCCCC2)nc(O)cc1=O | inconclusive: 8.91 µM [inhibitor, full curve, poor fit]
3 | CN1CCc2c(sc(/N=C/c3c[nH]c4ccccc34)c2C(N)=O)C1 | inconclusive: 94.6 µM [inhibitor, single point]
4 | COc1ccc(N2CCN(C(c3cc(OC)ccc3OC)c3nnnn3CC3CCCO3)CC2)cc1 (centres undefined) | inactive
5 | CCCC1S/C(=N/N=C/c2ccco2)NC1=O (centres undefined) | inconclusive: 44.7 µM [inhibitor, single point]
6 | O=C1C=C(c2ccc(OC(F)(F)F)cc2)C[C@@H](c2ccc(F)cc2)C1 | inactive
7 | COc1ccccc1CNC(=O)CSc1nnc2c(n1)[nH]c1ccc(F)cc12 | inconclusive: 3.55 µM [inhibitor, single point]
8 | CN(C)CCN(Cc1ccco1)C(=O)c1oc2ccccc2c1NC(=O)c1cccc(F)c1 | inactive
9 | O=c1[nH]n2c(=O)c3c([nH]c2c1N=Nc1ccccc1)CCC3 | inconclusive: 39.8 µM [inhibitor, partial curve]
10 | Cc1cc(C)c2cc(CN(CCCN(C)C)C(=S)NCc3ccccc3)c(=O)[nH]c2c1 | inactive
11 | COc1cc(/C=N/NC(N)=O)cc([N+](=O)[O-])c1O | inconclusive: 70.8 µM [inhibitor, single point]
12 | OC[C@@H]1[C@@H](c2ccc(Cl)cc2)C(c2ccccc2)=NN1c1ccccc1 | inconclusive: 25.1 µM [inhibitor, partial curve]
13 | COC(=O)c1ccc(C#CC(NP(=O)(c2ccccc2)c2ccccc2)c2ccccc2)cc1 (centres undefined) | inconclusive: 17.8 µM [inhibitor, partial curve]
14 | Cc1cccc(/N=C/c2c(O)cc(C)oc2=O)n1 | inconclusive: 70.8 µM [inhibitor, partial curve]
15 | COc1ccc(CNC(=O)Cc2nn(C)c(=O)c3ccccc23)cc1 | inactive
16 | Cc1ccc(Nc2c3c(nc4ccccc24)CCC3)cc1F | inactive
17 | C/C(=N\OCc1nc2ccccc2c(=O)n1/N=C/c1cc(C)cc([N+](=O)[O-])c1O)c1ccccc1 | inconclusive: 0.0398 µM [inhibitor, full curve, poor fit]
18 | COc1ccccc1NC(=O)C(=N\O)/C(C)=N/O | inconclusive: 22.4 µM [inhibitor, full curve]
19 | CCOc1ccc(CN2CCN(S(=O)(=O)c3ccc(Cl)cc3)CC2)cc1 | inconclusive: 3.55 µM [inhibitor, single point]
